Test results: PubChem BioAssay AID485294 (National Center for Advancing Translational Sciences (NCATS), 2010)
Out of some 370,000 compounds screened, about 150 (0.041%) were called active. This list was built around the results that the source calls inconclusive (neither active nor inactive); the mix of calls is not that of the screen. Calls follow the shape of the dose curve; as a rule, active = well fitted inhibition curve with a large enough effect; inconclusive = small, poorly fitted or top-dose-only effect; inactive = flat fitted curve, though single readings scatter. Potencies of inconclusive entries are left out as doubtful fits.
Also: nearly all actives have a fitted effect of over 25% in size.
Potency is read from the fitted curve at half-maximal effect; tags tell the direction and shape of the fitted curve.

The molecules below were run against Beta-lactamase (Escherichia coli (strain K12)) (UniProt P00811) (assay: qHTS Inhibitors of AmpC Beta-Lactamase (assay with detergent)). Conditions: AmpC hydrolysis of nitrocefin, absorbance 480 nm, 0.01% Triton; series mostly up to 114 µM.
UniProt P00811, sequence (P00811 whole entry, looked up): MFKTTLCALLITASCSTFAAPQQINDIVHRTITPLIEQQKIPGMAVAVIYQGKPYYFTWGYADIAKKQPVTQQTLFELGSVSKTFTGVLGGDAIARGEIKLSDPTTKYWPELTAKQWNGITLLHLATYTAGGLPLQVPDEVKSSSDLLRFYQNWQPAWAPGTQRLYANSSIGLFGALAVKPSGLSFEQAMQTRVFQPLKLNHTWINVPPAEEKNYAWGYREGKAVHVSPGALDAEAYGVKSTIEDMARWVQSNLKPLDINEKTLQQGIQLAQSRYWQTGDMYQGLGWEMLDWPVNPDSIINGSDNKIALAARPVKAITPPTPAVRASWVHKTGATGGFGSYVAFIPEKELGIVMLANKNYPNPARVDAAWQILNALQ
Method in brief: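 20 mM phosphate pH 7.0 + 0.01% (detergent screen) or 0.0001% Triton X-100; 5.3 nM AmpC reagent; cpd preinc 15 min RT; nitrocefin (800 uM stock) to start; A480 q20 s × 4 min; Activity was normalised to no-enzyme and no-compound control wells.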
For COc1ccc(C(=O)NNC2=Nc3cccc4cccc2c34)cc1, the Potency was “inactive”. In the case of O=C1N(Cc2ccccc2)c2ccc(Cl)cc2C12OCCO2, the Potency is reported as inconclusive [inhibitor, full curve, poor fit]. N/C(=N\OC(=O)CCC1CCCC1)c1cccc([N+](=O)[O-])c1 was tested, and the Potency was “inactive”. Fc1ccc(CCN2CCN=C2Nc2ccccc2)cc1 was tested, and the Potency was inconclusive [inhibitor, full curve]. In the case of CC(C)Cc1nc2n[nH]c(N)c2c2c1CCC2, the Potency is reported as “inactive”. For COc1cc(OC)nc(-n2ncc(OC)c(Br)c2=O)n1, the Potency was inconclusive [inhibitor, full curve]. In the case of COc1ccc2nc(NC(=O)c3ccc(F)cc3)sc2c1, the Potency is reported as inconclusive [inhibitor, partial curve]. In the case of CC(=O)NC(=O)NC1OC(=O)C(Cl)=C1Cl (stereo not given), the Potency is reported as inconclusive [inhibitor, full curve, poor fit]. In the case of CCc1cc(=O)oc2cc(C)cc(OCc3nn[nH]n3)c12, the Potency is reported as inconclusive [inhibitor, full curve, poor fit]. With COC(=O)c1cnc(Nc2cccc(C(F)(F)F)c2)c([N+](=O)[O-])c1 the Potency was inconclusive [inhibitor, full curve, poor fit]. COc1cc(C(=O)O/N=C(\N)c2ccc([N+](=O)[O-])cc2)cc(OC)c1OC was tested, and the Potency was “inactive”. In the case of COc1cccc(-n2c(COc3ccc(C)cc3)nnc2SCC(N)=O)c1, the Potency is reported as inconclusive [inhibitor, full curve, poor fit]. Cc1ccc2c(c1)C(O)(CC(=O)c1cccnc1)C(=O)N2 (stereo not given) was tested, and the Potency was inconclusive [inhibitor, single point]. In the case of COC(=O)c1ccc(C(=O)OC)c(NS(=O)(=O)c2ccc(NC(C)=O)cc2)c1, the Potency is reported as inconclusive [inhibitor, full curve, poor fit]. CCCn1cc(S(=O)(=O)c2cccc(Cl)c2)c(=O)c2cc(F)c(N3CCN(CC)CC3)cc21 was tested, and the Potency was “inactive”. For CCCNC(=S)N1CCC(NC(=O)C23CC4CC(CC(C4)C2)C3)CC1, the Potency was inconclusive [inhibitor, full curve, poor fit]. Cc1cc(OCCn2c(C3CC(=O)N(Cc4ccc(F)cc4)C3)nc3ccccc32)ccc1Cl (stereo not given) was tested, and the Potency was “inactive”. In the case of O=C(CN1C(=O)c2cccc3cccc1c23)NCc1ccccn1, the Potency is reported as inconclusive [inhibitor, single point]. In the case of O=C(O)/C(=C/c1ccco1)NC(=O)c1ccc(Br)o1, the Potency is reported as “inactive”. For O=C(Nc1ccc2c(c1)OCO2)c1c(Cl)nc2sccn12, the Potency was inconclusive [inhibitor, partial curve, poor fit]. With Cc1cc2n(n1)SC(Nc1ccc(F)c(Cl)c1)N2 (stereo not given) the Potency was “inactive”. In the case of Cc1ccc(C(=O)NNC(=O)C2CCN(Cc3ccc(Cl)c(Cl)c3)CC2)cc1, the Potency is reported as inconclusive [inhibitor, full curve, poor fit]. Cc1nn(-c2nc3ccccc3[nH]2)c(N)c1-c1ccccc1 was tested, and the Potency was “inactive”. With Cc1ccc(N(C(=O)Nc2ccccc2)C2=NCCC2)cc1 the Potency was “inactive”. In the case of Cc1ccc(S(=O)(=O)N2CCOCC2)cc1C(=O)NC1CCSc2ccccc21 (stereo not given), the Potency is reported as “inactive”. For O=C(Nc1cccc(S(=O)(=O)N2CCCC2)c1)c1cccc(OC(F)F)c1, the Potency was inconclusive [inhibitor, single point]. With O=C(CCC1CC(=O)Nc2ccccc21)NCc1ccc(F)cc1 (stereo not given) the Potency was inconclusive [inhibitor, single point]. With CCc1cc(C(=O)N(CC)CC(=O)Nc2ccc(OC)cc2)sc1C the Potency was inconclusive [inhibitor, full curve, poor fit]. With O=C(NCCC1CCCCN1S(=O)(=O)c1cccs1)C(=O)Nc1ccc(F)cc1 (stereo not given) the Potency was inconclusive [inhibitor, partial curve, poor fit]. With Cc1ccc2c(c1)c(N=NC(N)=O)c(O)n2C the Potency was “inactive”. With O=C(OCCN1CCCC1=O)c1cncc(Br)c1 the Potency was inconclusive [inhibitor, partial curve, poor fit]. In the case of CCOc1ccc(CCNC(=O)c2ccc3[nH]c(C)c(C)c3c2)cc1, the Potency is reported as “inactive”. O=C(/C=C/c1ccccc1)NC(=S)Nc1ccc(CN2CCOCC2)cc1 was tested, and the Potency was inconclusive [inhibitor, full curve, poor fit]. With C/C(CC(=O)Nc1cccc(C(F)(F)F)c1)=N\NC(=O)C1CCCCC1 the Potency was “inactive”. In the case of Cc1ccc(C(=O)O/N=C2\CC3CCC2(C)C3(C)C)cc1 (stereo not given), the Potency is reported as inconclusive [inhibitor, single point]. O=C(CN1C(=O)/C(=C/c2ccco2)SC1=S)NC1CCS(=O)(=O)C1 (stereo not given) was tested, and the Potency was inconclusive [inhibitor, full curve, poor fit]. For CCc1nc(-c2ccc(C)nc2OC)no1, the Potency was inconclusive [inhibitor, full curve, poor fit]. For CC(=O)N1N=C(c2ccccc2O)OC1(C)CC(=O)Nc1ccccc1 (stereo not given), the Potency was inconclusive [inhibitor, partial curve, poor fit]. With CC(=O)N1c2ccccc2CCc2ccc(N)cc21 the Potency was inconclusive [inhibitor, full curve]. In the case of CC(C)Cc1nc2oc3c(=O)[nH]cnc3c2c2c1CCC2, the Potency is reported as inconclusive [inhibitor, partial curve, poor fit]. CC(C)CC(=O)Nc1ccc2c(c1)nc(CCN1CCCCC1)n2C was tested, and the Potency was inconclusive [inhibitor, full curve, poor fit]. In the case of COc1ccc(NC(=O)Cn2c(=O)sc3ccccc32)cc1, the Potency is reported as inconclusive [inhibitor, full curve]. For Cc1ccc(C)c(CSc2ncccc2C(=O)O)c1, the Potency was inconclusive [inhibitor, full curve, poor fit]. In the case of Cc1ccc(C)c(Cn2c(=O)n(-c3ccc(CC(=O)NCc4ccco4)cc3)c(=O)c3sccc32)c1, the Potency is reported as inconclusive [inhibitor, full curve, poor fit]. With O=C(Nc1ccc(F)cc1)C1CCCN(S(=O)(=O)c2cccc3nonc23)C1 (stereo not given) the Potency was inconclusive [inhibitor, full curve, poor fit]. In the case of N/C(=N\OC(=O)c1ccc(Br)cc1)c1ccncc1, the Potency is reported as “inactive”. With COc1ccc2nc(Nc3nc(C)c(C(C)=O)s3)sc2c1 the Potency was inconclusive [inhibitor, partial curve]. With Cc1ccc(Cl)cc1N1C(=O)CC(C)(C)CC1=O the Potency was inconclusive [inhibitor, partial curve]. c1cncc(C(c2nnnn2C2CCCCC2)N2CCN3CCCC3C2)c1 (stereo not given) was tested, and the Potency was “inactive”. In the case of CC(C(=O)N1CCCC1)N(C)CC(=O)Nc1cccc(F)c1 (stereo not given), the Potency is reported as “inactive”. COc1ccc(N2CCN(CC(=O)c3c(C)n(C)c4ccc(OC)cc34)CC2)cc1 was tested, and the Potency was inconclusive [inhibitor, single point]. With COc1cccc(CNC(=O)C2CCN(Cc3cnn(-c4ccccc4)c3-n3cccc3)CC2)c1 the Potency was inconclusive [inhibitor, full curve, poor fit]. COc1ccc(NC(=O)CN2CCN(S(=O)(=O)N(C)C)CC2)cc1 was tested, and the Potency was “inactive”. O=C(NCCCn1ccnc1)C(Cc1ccccc1)N1C(=O)c2ccccc2C1=O (stereo not given) was tested, and the Potency was inconclusive [inhibitor, partial curve]. In the case of CN1CC(C(=O)c2ccc(F)cc2)C(c2ccc(F)cc2)C1 (stereo not given), the Potency is reported as “inactive”. For COc1ccccc1N1CCN(C(c2ccccc2)c2nnc(-c3ccccc3Cl)o2)CC1 (stereo not given), the Potency was “inactive”. In the case of CCCCc1c(O)nc(SC2CC(=O)N(c3ccc(C(=O)OCC)cc3)C2=O)[nH]c1=O (stereo not given), the Potency is reported as inconclusive [inhibitor, full curve]. CCN(CC)CCN1C(=O)c2ccccc2NC1c1ccc(F)cc1 (stereo not given) was tested, and the Potency was “inactive”. O=C(O)C1CCN(S(=O)(=O)N2CCOCC2)CC1 was tested, and the Potency was inconclusive [inhibitor, full curve, poor fit]. In the case of CN1/C(=C/C(=O)c2cccs2)Sc2ccccc21, the Potency is reported as inconclusive [inhibitor, full curve, poor fit]. In the case of COC(=O)[C@H](CCSC)NC(=O)Nc1ccc(C)c(C)c1, the Potency is reported as inconclusive [inhibitor, full curve]. COc1cc(C2C(C(=O)c3cccs3)=C(O)C(=O)N2c2cc(C)on2)ccc1O (stereo not given) was tested, and the Potency was inconclusive [inhibitor, full curve]. For N#CC1=C(N)C(C#N)(C#N)C(c2ccc[nH]2)C2CCCC=C12 (stereo not given), the Potency was “inactive”. In the case of CCC1CCCCN1C(=O)Cn1c(=O)n(-c2ccccc2C(F)(F)F)c(=O)c2c(C)c(C(=O)N(C)C)sc21 (stereo not given), the Potency is reported as “inactive”. With C=CCNc1nc(N2CCOCC2)c(C#N)c2c1CN(C)CC2 the Potency was inconclusive [inhibitor, full curve, poor fit]. O=C(NCc1cccc(F)c1)C1CCC(=O)N(C2CCCC2)C1 (stereo not given) was tested, and the Potency was inconclusive [inhibitor, partial curve]. In the case of CN1CCCN(C(=O)CSc2ccccc2)CC1, the Potency is reported as inconclusive [inhibitor, full curve, poor fit]. For CC(C)(C)CC(=O)Nc1ccccc1N1CCN(c2ccc(F)cc2)CC1, the Potency was “inactive”. For NS(=O)(=O)c1ccc(CNC(=O)CCS(=O)(=O)Cc2ccccc2)cc1, the Potency was inconclusive [inhibitor, full curve, poor fit]. With CCc1ccc(OCC(=O)NNC(=O)Cc2cccs2)cc1 the Potency was inconclusive [inhibitor, partial curve].
